{"source": "paper PMC4336329", "about": "(PLoS ONE, 2015)", "note": "About 2,200 (0.71%) of roughly 310,000 compounds showed an effect of 50% or more. The effect is printed as a negative number. This is one part of the list.", "data": [{"molecular_target": "human ether-à-go-go-related gene (hERG) potassium channel (human, UniProt Q12809)", "sequence (Q12809 whole entry, looked up)": "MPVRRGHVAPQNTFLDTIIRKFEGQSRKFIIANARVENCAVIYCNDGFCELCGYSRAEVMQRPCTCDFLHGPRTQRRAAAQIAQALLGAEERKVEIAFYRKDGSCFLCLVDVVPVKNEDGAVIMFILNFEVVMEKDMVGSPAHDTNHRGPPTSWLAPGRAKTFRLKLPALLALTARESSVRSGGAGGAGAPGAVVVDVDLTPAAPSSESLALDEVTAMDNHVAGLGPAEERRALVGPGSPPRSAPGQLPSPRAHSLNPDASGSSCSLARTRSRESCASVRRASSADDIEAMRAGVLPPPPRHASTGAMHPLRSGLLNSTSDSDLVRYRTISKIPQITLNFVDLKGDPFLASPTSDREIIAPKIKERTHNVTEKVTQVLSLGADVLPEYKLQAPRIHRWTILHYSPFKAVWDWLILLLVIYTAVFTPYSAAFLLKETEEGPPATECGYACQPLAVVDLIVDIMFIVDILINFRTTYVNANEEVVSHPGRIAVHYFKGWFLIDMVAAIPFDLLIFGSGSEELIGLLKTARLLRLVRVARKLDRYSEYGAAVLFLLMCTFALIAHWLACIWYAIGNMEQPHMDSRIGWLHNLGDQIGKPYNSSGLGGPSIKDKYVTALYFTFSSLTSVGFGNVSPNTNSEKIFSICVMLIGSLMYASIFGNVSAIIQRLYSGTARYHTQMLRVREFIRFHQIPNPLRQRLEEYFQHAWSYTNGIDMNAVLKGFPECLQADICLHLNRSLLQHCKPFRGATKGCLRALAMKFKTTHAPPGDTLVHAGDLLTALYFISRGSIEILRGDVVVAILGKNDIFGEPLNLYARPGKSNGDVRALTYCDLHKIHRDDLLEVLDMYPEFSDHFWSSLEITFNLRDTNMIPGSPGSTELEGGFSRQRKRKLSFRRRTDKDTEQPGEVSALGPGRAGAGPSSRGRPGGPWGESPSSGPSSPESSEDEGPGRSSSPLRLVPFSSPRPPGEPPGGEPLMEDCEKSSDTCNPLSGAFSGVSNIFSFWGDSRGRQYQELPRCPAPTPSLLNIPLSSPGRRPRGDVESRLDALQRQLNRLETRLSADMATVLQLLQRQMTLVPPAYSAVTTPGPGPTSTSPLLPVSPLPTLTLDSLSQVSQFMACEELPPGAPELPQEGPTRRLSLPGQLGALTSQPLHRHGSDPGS", "assay": "primary screen, population patch clamp on CHO cells stably expressing hERG", "units": {"hERG current change (%, negative = inhibition) at 1uM": "%"}, "values": [{"smiles": "CN(C)S(=O)(=O)c1ccc(C(=O)Nc2nc(-c3cccs3)cs2)cc1", "hERG current change (%, negative = inhibition) at 1uM": 11.4}, {"smiles": "CN(C)CCN1C(=O)C(=O)/C(=C(/O)c2ccc(S(=O)(=O)N3CCOCC3)cc2)C1c1ccccc1", "note": "(stereo not shown)", "hERG current change (%, negative = inhibition) at 1uM": 9.21}, {"smiles": "COc1cc(/C=C2\\SC(=S)N(NC(=O)c3ccccc3OC)C2=O)ccc1O", "hERG current change (%, negative = inhibition) at 1uM": 13}, {"smiles": "Cn1c(=O)c(Nc2ccc(O)cc2)c2c3c(cccc31)C(=O)c1ccccc1-2", "hERG current change (%, negative = inhibition) at 1uM": 7.76}, {"smiles": "CN(C)S(=O)(=O)c1ccc(N2CCCC2)c(C(=O)NNC(=O)c2ccc(F)cc2)c1", "hERG current change (%, negative = inhibition) at 1uM": 14.3}, {"smiles": "O=C(CN1C(=O)C2C3C=CC(C3)C2C1=O)NCCc1ccccc1Cl", "note": "(stereo not shown)", "hERG current change (%, negative = inhibition) at 1uM": 11.9}, {"smiles": "COC(=O)c1nn(-c2cccc(Cl)c2)cc(OC)c1=O", "hERG current change (%, negative = inhibition) at 1uM": 18.7}, {"smiles": "Cc1nc(N2CCOCC2)c2c(C)c(C(=O)Nc3ccc(F)cc3F)sc2n1", "hERG current change (%, negative = inhibition) at 1uM": 11.2}, {"smiles": "CCN(CC1CCCO1)C(=O)c1cc(COc2ccccc2SC)on1", "note": "(stereo not shown)", "hERG current change (%, negative = inhibition) at 1uM": -58.9}, {"smiles": "CC(=O)O.COc1cc2c(C#N)c(N3CCCC3)nc(N)c2c(N)n1", "hERG current change (%, negative = inhibition) at 1uM": 8.26}, {"smiles": "CCOc1ccccc1CNS(=O)(=O)c1cc(-c2cc(C)no2)ccc1OC", "hERG current change (%, negative = inhibition) at 1uM": 7.98}, {"smiles": "COc1ccc(N2CCN(C(=O)c3cccc(NC4=NC5CS(=O)(=O)CC5S4)c3)CC2)cc1", "note": "(stereo not shown)", "hERG current change (%, negative = inhibition) at 1uM": 17.9}, {"smiles": "O=C(N/N=C/c1ccc(OC(=O)c2ccccc2)c([N+](=O)[O-])c1)c1ccc(O)cc1", "hERG current change (%, negative = inhibition) at 1uM": 10.9}, {"smiles": "Cc1ccc(-n2c(=S)[nH]c3sc4c(c3c2=O)CCC4)cc1", "hERG current change (%, negative = inhibition) at 1uM": 16.6}, {"smiles": "CCCCn1c(N)c(N(CCOC)C(=O)c2ccc(-c3ccc(C(C)=O)cc3)o2)c(=O)[nH]c1=O", "hERG current change (%, negative = inhibition) at 1uM": 6.17}, {"smiles": "O=C(COc1ccccc1Cl)N1CCCC(N2CCN(c3ccc(F)cc3)CC2)C1", "note": "(stereo not shown)", "hERG current change (%, negative = inhibition) at 1uM": -19.5}, {"smiles": "Cc1ccc(NC(=O)COc2cccnc2[N+](=O)[O-])cc1S(=O)(=O)N1CCOCC1", "hERG current change (%, negative = inhibition) at 1uM": 9.39}, {"smiles": "CCc1nc2ccccc2n1CC(C)C(=O)O.Cl", "note": "(stereo not shown)", "hERG current change (%, negative = inhibition) at 1uM": 12.7}, {"smiles": "COc1ccc(CC(=O)OCC(=O)Nc2ccc3[nH]c(=O)[nH]c3c2)cc1", "hERG current change (%, negative = inhibition) at 1uM": 10.9}, {"smiles": "CC1CCN(C(=O)c2ccc3c(c2)NC(=O)/C(=C/c2ccccc2)S3)CC1", "hERG current change (%, negative = inhibition) at 1uM": 14.6}, {"smiles": "Cc1ccccc1/C=C1\\Sc2ccc(C(=O)N3CCN(c4ccccn4)CC3)cc2N(C)C1=O", "hERG current change (%, negative = inhibition) at 1uM": 9.39}, {"smiles": "C=CCN(C(=O)C1=NN(C2CCS(=O)(=O)C2)C(=O)CC1)c1nc(-c2ccc([N+](=O)[O-])cc2)cs1", "note": "(stereo not shown)", "hERG current change (%, negative = inhibition) at 1uM": -6.17}, {"smiles": "Cc1cc(C)cc(NC(=S)N2CCN(CCO)CC2)c1", "hERG current change (%, negative = inhibition) at 1uM": 12.4}, {"smiles": "Cc1cc(C)nc(NC(=O)Cc2ccc(Cl)cc2)c1", "hERG current change (%, negative = inhibition) at 1uM": 15.1}, {"smiles": "CC(C)(C)C1CCC2(CC1)C(C#N)=C(SCC(=O)NC1CCCCC1)NC(=O)C2C#N", "note": "(stereo not shown)", "hERG current change (%, negative = inhibition) at 1uM": 7.68}, {"smiles": "COc1ccc(/C=N/NC(=S)NCc2ccccc2)cc1OC", "hERG current change (%, negative = inhibition) at 1uM": 9.83}, {"smiles": "Cc1ccc(CNC(=O)CS(=O)(=O)CC(=O)O)cc1", "hERG current change (%, negative = inhibition) at 1uM": 17.8}, {"smiles": "CC(=O)Nc1cc(C(=O)N2CCCC2)ccc1S(=O)(=O)c1ccc(Cl)cc1", "hERG current change (%, negative = inhibition) at 1uM": 6.72}, {"smiles": "CCCS(=O)(=O)N1CCN(C(=O)COc2ccc(OC)cc2)CC1.O=C(O)C(=O)O", "hERG current change (%, negative = inhibition) at 1uM": 11.7}, {"smiles": "COc1ccc2oc(=N)c(C(=O)NCc3ccccc3)cc2c1", "hERG current change (%, negative = inhibition) at 1uM": 9.73}, {"smiles": "CC(=O)Nc1ccc(NC(=O)CSc2ccc3nnc(CCNS(=O)(=O)c4ccc(C)cc4)n3n2)cc1", "hERG current change (%, negative = inhibition) at 1uM": 7.69}, {"smiles": "Cc1cc(C)c(OCCCNC2CCCC2)c(Br)c1.O=C(O)C(=O)O", "hERG current change (%, negative = inhibition) at 1uM": 8.9}, {"smiles": "Cc1cc(-c2ccc(C)c(S(=O)(=O)NCCN3CCC(C)CC3)c2)on1", "hERG current change (%, negative = inhibition) at 1uM": 5.76}, {"smiles": "COc1ccc(C=O)cc1O", "hERG current change (%, negative = inhibition) at 1uM": 5.93}, {"smiles": "NC(=S)N=Nc1c(O)[nH]c2ccc(F)cc12", "hERG current change (%, negative = inhibition) at 1uM": 11.4}, {"smiles": "O=C(NNC(=O)c1oc2ccccc2c1-n1cccc1)c1ccco1", "hERG current change (%, negative = inhibition) at 1uM": 10.3}, {"smiles": "COc1ccccc1NC(=S)NCc1cccs1", "hERG current change (%, negative = inhibition) at 1uM": 11}, {"smiles": "CCN(CC)CCSc1nnc(Nc2ccccc2)n1-c1ccccc1", "hERG current change (%, negative = inhibition) at 1uM": -43.4}, {"smiles": "COc1cccc(C(=O)/C=C/Nc2ccc(S(=O)(=O)Nc3nc(C)cc(C)n3)cc2)c1", "hERG current change (%, negative = inhibition) at 1uM": 5.42}, {"smiles": "S=C1SCN(CCN2CCOCC2)CN1Cc1ccccc1", "hERG current change (%, negative = inhibition) at 1uM": 12.5}, {"smiles": "CCCc1nc(N2CCN(S(=O)(=O)c3ccc(Cl)cc3)CC2)c2c(C)c(C)sc2n1", "hERG current change (%, negative = inhibition) at 1uM": 9.56}, {"smiles": "Cc1ccc(OCc2ccoc2C(=O)O)cc1C", "hERG current change (%, negative = inhibition) at 1uM": 6.17}, {"smiles": "CCOc1ccc(NC(=O)c2ccc(N3CC4CC(C3)c3cccc(=O)n3C4)c(N)c2)cc1", "note": "(stereo not shown)", "hERG current change (%, negative = inhibition) at 1uM": -1.99}, {"smiles": "CCC(CC)NC(=O)c1cc([N+](=O)[O-])ccc1N1CCOCC1", "hERG current change (%, negative = inhibition) at 1uM": 15.6}, {"smiles": "Cc1ccc(C2=NN(CCC(=O)N3CCC4(CC3)OCCO4)C(=O)CC2)cc1", "hERG current change (%, negative = inhibition) at 1uM": -27.5}, {"smiles": "CC(=O)Nc1ccc(S(=O)(=O)NCc2ccc3[nH]c(C)cc3c2)cc1", "hERG current change (%, negative = inhibition) at 1uM": 17.8}, {"smiles": "COc1cccc(NC(=O)CN(C)C(=O)c2cc(-c3cccc(Br)c3)nc3ccccc23)c1", "hERG current change (%, negative = inhibition) at 1uM": 12.3}, {"smiles": "COc1cccc(C2Nc3ccccc3C(=O)N2Cc2ccccc2)c1", "note": "(stereo not shown)", "hERG current change (%, negative = inhibition) at 1uM": 9.32}, {"smiles": "O=C(Nc1ccc(C(=O)N2CCCC2)cc1)c1ccccc1F", "hERG current change (%, negative = inhibition) at 1uM": -3.03}, {"smiles": "O=C1CCC([N+](=O)[O-])C(c2ccccc2Cl)N1", "note": "(stereo not shown)", "hERG current change (%, negative = inhibition) at 1uM": 9.07}, {"smiles": "CC(C)c1ccc(NC(=O)CCCC(=O)NCCc2ccccc2)cc1", "hERG current change (%, negative = inhibition) at 1uM": 7.18}, {"smiles": "Cc1cc(C)cc(NS(=O)(=O)c2ccc3c(c2)C(C)(C)C(=O)N3C)c1", "hERG current change (%, negative = inhibition) at 1uM": 5.31}, {"smiles": "C=CCOc1ccccc1CN1CCC(n2nccc2NC(=O)C2CCOC2)CC1", "note": "(stereo not shown)", "hERG current change (%, negative = inhibition) at 1uM": 4.77}, {"smiles": "COC(=O)c1cccc(-c2noc(-c3ccccc3F)n2)c1", "hERG current change (%, negative = inhibition) at 1uM": 16.2}, {"smiles": "CC(=O)Nc1nnc(/C=C/c2cccc([N+](=O)[O-])c2)s1", "hERG current change (%, negative = inhibition) at 1uM": 13.4}]}]}
